According to paper PMC4336329 (PLoS ONE, 2015):
About 2,200 (0.71%) of roughly 310,000 compounds showed an effect of 50% or more. The effect is printed as a negative number. The list shows a part of the results. Where a SMILES comes first, the peptide text is derived from it. [ ]: non-standard residue; d: D form. The star is where a group is joined. ξ: configuration not given here. Cbz = O=C(OCc1ccccc1)*; ξS = NC(CO)C(=O)O

The compounds below were run against human ether-à-go-go-related gene (hERG) potassium channel (human, UniProt Q12809) (assay: primary screen, population patch clamp on CHO cells stably expressing hERG).
Chain of human ether-à-go-go-related gene (hERG) potassium channel (Q12809 whole entry, looked up): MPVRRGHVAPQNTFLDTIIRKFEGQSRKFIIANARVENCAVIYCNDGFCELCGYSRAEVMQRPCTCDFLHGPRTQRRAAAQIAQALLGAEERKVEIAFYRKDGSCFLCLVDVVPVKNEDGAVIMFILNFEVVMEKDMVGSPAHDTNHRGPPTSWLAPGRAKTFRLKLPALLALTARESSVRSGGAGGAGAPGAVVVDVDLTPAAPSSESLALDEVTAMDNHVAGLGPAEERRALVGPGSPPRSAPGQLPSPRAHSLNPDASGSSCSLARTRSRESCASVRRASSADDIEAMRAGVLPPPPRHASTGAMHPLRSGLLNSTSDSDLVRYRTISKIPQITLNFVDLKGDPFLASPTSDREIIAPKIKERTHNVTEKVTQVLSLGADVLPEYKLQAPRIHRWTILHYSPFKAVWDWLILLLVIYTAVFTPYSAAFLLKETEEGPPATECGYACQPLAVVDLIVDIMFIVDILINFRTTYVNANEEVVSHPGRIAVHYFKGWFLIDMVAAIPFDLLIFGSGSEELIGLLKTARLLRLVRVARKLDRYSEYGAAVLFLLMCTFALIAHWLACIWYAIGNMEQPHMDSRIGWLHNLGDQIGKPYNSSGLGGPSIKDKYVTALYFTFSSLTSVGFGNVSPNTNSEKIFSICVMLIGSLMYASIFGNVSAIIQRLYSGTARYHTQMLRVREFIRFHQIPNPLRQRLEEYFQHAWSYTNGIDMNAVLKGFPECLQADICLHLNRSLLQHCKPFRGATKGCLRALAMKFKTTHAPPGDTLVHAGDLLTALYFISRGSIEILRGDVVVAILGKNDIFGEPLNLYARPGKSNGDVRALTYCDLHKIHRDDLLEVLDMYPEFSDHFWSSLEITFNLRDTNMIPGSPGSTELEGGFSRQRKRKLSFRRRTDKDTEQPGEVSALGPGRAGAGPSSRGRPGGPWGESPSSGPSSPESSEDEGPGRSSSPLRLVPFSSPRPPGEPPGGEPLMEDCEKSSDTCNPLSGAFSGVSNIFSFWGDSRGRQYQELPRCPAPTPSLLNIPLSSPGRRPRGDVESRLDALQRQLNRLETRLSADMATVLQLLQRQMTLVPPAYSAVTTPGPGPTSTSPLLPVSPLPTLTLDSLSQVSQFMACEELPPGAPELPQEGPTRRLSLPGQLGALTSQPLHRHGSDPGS

Row | Compound | hERG current change (%, negative = inhibition) at 1uM [%]
1 | CN(C)S(=O)(=O)c1ccc(N=Cc2c(C(F)(F)F)[nH]n(C)c2=O)cc1 | 8.08
2 | CSCCC(NC(N)=O)C(=O)N(C)CC(=O)Nc1ccc(C)cc1 (stereo not shown) | 11
3 | CCOC(=O)Cc1c(C)nc2c(-c3ccccc3)c(-c3ccccc3)[nH]n2c1=O | 2.13
4 | COCCNC(=O)C(=O)c1cc(C)n(-c2ccc([N+](=O)[O-])cc2)c1C | -4.17
5 | CCOc1ccc(-c2nc(CSCC(=O)NC3CCCc4ccccc43)c(C)o2)cc1 (stereo not shown) | 3.71
6 | COC(=O)c1nc(N)sc1C(C)C | 15.6
7 | CCOC(=O)c1c(NC(=O)Cn2cnc3sc(C)c(-c4ccccc4)c3c2=O)sc(C)c1C | 3.54
8 | O=C(Nc1ccncc1)c1ccc2c(c1)C(=O)N(CC1CCCO1)C2=O (stereo not shown) | -2.45
9 | O=C(c1ccccc1)N(Cc1cccnc1)C1(C(=O)Nc2ccccc2)CCCCC1 | 8.82
10 | CCn1c(-c2ccc(C)cc2)nn(CC(=O)NCCc2ccccc2)c1=S | -2.97
11 | CCSC1=C(C#N)C(c2cccc(O)c2)CC(=O)N1 (stereo not shown) | 3.9
12 | O=C(Oc1c(Br)cc(C(=S)N2CCOCC2)cc1Br)c1ccc(Cl)cc1 | 11.6
13 | CC12COC3(C(=O)N4CCN(c5ccccn5)CC4)CC1CCC32C (stereo not shown) | -3.31
14 | CCS(=O)(=O)N1CCN(c2ccc([N+](=O)[O-])c(N3CCOCC3)c2)CC1 | 4.65
15 | CCN(CC)CCNC(=O)C1CCN(S(=O)(=O)c2c(C)noc2/C=C/c2ccccc2F)CC1 | -2.13
16 | CCC(=O)Nc1sc(C(=O)Nc2ccccc2F)c(C)c1C(=O)OC | 7.41
17 | CCOc1c(OC)cccc1C1CC(=O)Nc2cc3c(cc21)OCCO3 (stereo not shown) | 12.2
18 | CC1(C)CCC[C@@]2(C)CC=C(C(=O)O)[C@@H]3C[C@]312 | 9.44
19 | COc1ccc(Cl)cc1NC(=O)CNCc1cccs1.O=C(O)C(=O)O | 10.3
20 | CC(=O)N/C(=C/c1ccc2c(c1)OCO2)C(=O)O | 12.1
21 | Nc1ccc2c(C(F)(F)F)cc(=O)oc2c1 | 13.3
22 | CC1CN(c2ccc([N+](=O)[O-])c(NCCOc3ccccc3)c2)CCN1 (stereo not shown) | 3.95

Row | Compound | hERG current change (%, negative = inhibition) at 1uM [%]
23 | CN(c1ccccc1)C(c1ccc(F)cc1)c1nnnn1C1CCCC1 (stereo not shown) | 0.381
24 | C=CCn1c(NC(=O)c2ccc(C)cc2)nc2ccccc21 | 7.93
25 | CCOc1ccccc1NC(=S)NCCCn1ccnc1 | 23
26 | C=CCC(CC=C)(C(N)=O)c1ccccc1 | -3.6
27 | COc1ccccc1N1CCN(C(=O)c2cc3c(s2)-c2ccccc2OC3)CC1 | 17
28 | O=C(CNC(=O)C(c1ccccc1)c1ccccc1)N/N=C\c1cccc(O)c1 | 13.1
29 | O=C(O)/C=C/c1ccc2ccccc2n1 | 4.62
30 | Cc1ccc(SCCC(=O)NC(C)(C)C)cc1 | -0.491
31 | COc1ccc(-c2noc(CCCC(=O)NCc3ccco3)n2)cc1OC | 11
32 | CCOC(=O)c1ccc(NC(=O)C2(c3ccccc3)CCOCC2)cc1 | 15
33 | Cc1nn(-c2nc3ccccc3[nH]2)c(N)c1-c1ccc(Cl)cc1 | 9.68
34 | Cn1ncc([N+](=O)[O-])c1C(=O)Nc1cccc(Cl)c1 | 10.1
35 | Cn1c(=O)c2c(nc(Br)n2CCSc2ncccn2)n(C)c1=O | 10.5
36 | O=C(Nc1cc(C(F)(F)F)cc(C(F)(F)F)c1)Nc1cnn(-c2ccc([N+](=O)[O-])cc2)c1C(F)(F)F | 4.68
37 | CC1=NN(C(=O)c2ccc(Cn3nc(C)cc3C)o2)C(O)(C(F)(F)F)C1 (stereo not shown) | 9.27
38 | C[C@]12CC[C@H](O)C[C@@H]1CC[C@@H]1[C@@H]2CC[C@]2(C)C(=O)CC[C@@H]12 | 3.96
39 | Cc1ccc(S(=O)(=O)NN2C(=O)c3ccccc3NC2c2ccccc2)cc1 (stereo not shown) | -10
40 | CC(C)NC(=O)c1ccc(CN2CCc3ccccc3C2)cc1 | -11.1
41 | Cc1c(CC(=O)O)c(=O)oc2c(C)c(OCc3nn[nH]n3)ccc12 | 15.3
42 | O=C(Cn1cnc2c(nnn2Cc2ccccc2)c1=O)NCC1CCCO1 (stereo not shown) | 10.8
43 | Cc1ccc(C)c(OCC(=O)N2CCN(Cc3ccc4c(c3)OCO4)CC2)c1 | -2.43
44 | Cl.N=C(N)c1ccc(Cl)cc1 | 16

Row | Compound | hERG current change (%, negative = inhibition) at 1uM [%]
45 | O=S(=O)(c1ccccc1)N1CCOCC1 | 3.93
46 | Fc1ccccc1C1CC(c2ccco2)=Nc2ccccc2S1 (stereo not shown) | 16.2
47 | Cc1ccc(CN2CCN(Cc3ccccc3)C(CCO)C2)s1 (stereo not shown) | -26.7
48 | Cc1ccnc(NC(=O)C2CC(=O)N(c3ccc4c(c3)OCCO4)C2)c1 (stereo not shown) | 12.7
49 | CC1(C)CC2(CCO1)OC(=O)CC2C(=O)Nc1ccccc1Cl (stereo not shown) | 9.95
50 | N=c1c(C(=O)NCc2ccco2)cc2c(=O)n3ccccc3nc2n1Cc1ccc(Cl)cc1 | -55.7
51 | COc1ccc(C)cc1Nc1cc(C)nc2nc(C)nn12 | -0.35
52 | C=CCn1c(COC)nnc1SCC(=O)c1ccc(F)cc1 | 5.03
53 | CCOC(=O)c1ccc(NC(=O)CSc2nnnn2CCCO)cc1 | -0.423
54 | O=C(COc1ccccc1[N+](=O)[O-])N/N=C/C=C/c1ccco1 | 5.63
55 | CC(C)/C=C/CN1CCC(Oc2ccc(C(=O)N3CCCC3)cc2)CC1 | -1.2
56 | COc1ccc(/C=C/c2nc3cc(-c4ccccc4)ccc3o2)cc1O | 9.24
57 | CN1CCN(c2ccc(NC(=O)c3ccc(C#N)cc3F)cc2Cl)CC1 | -10.9
58 | COc1ccc([N+](=O)[O-])cc1/C=N/NC(=O)Cc1ccccc1 | 12.4
59 | COC(=O)c1cccc(NC(=O)C23CC4CC(C2)CC(n2cncn2)(C4)C3)c1 | -5.4
60 | CCOC(=O)CNC(=O)C(CO)NC(=O)OCc1ccccc1 (stereo not shown) (Cbz-[ξS]-Gly-OEt) | 9.46
61 | CCCNC(=O)c1ccc(N2CCC3(CC2)CC(c2cccc(Br)c2)=NO3)c(NC(=O)c2ccc(Cl)c([N+](=O)[O-])c2)c1 | 2.42
62 | CCCCNC(=O)c1cn(-c2ccc(OCC)cc2)c(=O)c2cc(OC)c(OC)cc12 | 10.1
63 | N/C(=N\OC(=O)c1cccc(F)c1)c1cccc([N+](=O)[O-])c1 | 19.1
64 | CCN1C(=O)[C@@H]2[C@@H](c3ccc(-c4ccc(C(C)=O)cc4)cc3)N3CCC[C@@]3(C(=O)OC)[C@@H]2C1=O.O=C(O)C(F)(F)F | -2.75
65 | NC(=O)c1cn(-c2ccccc2)nc1-c1cc2ccccc2oc1=O | -8.14
66 | COc1ccc(/C=N/NC(=O)CN2CCS(=O)(=O)CC2)cc1 | 6.08

Row | Compound | hERG current change (%, negative = inhibition) at 1uM [%]
67 | O=C(O)c1ccc(N/N=C/c2ccc(-c3ccc(Br)cc3)o2)cc1 | 6.3
68 | Cc1cc(OCC(=O)NCC2CCC(C(=O)O)CC2)c2c3c(c(=O)oc2c1)CCC3 (stereo not shown) | 12.5
69 | O=C(O)c1cccc(NC(=S)NC(=O)C(c2ccccc2)c2ccccc2)c1 | 5.58
70 | CCOC(=O)c1ccc(NC(=O)CC2C(=O)N(c3ccc(F)cc3)C(=O)N2CCCOC)cc1 (stereo not shown) | -2.1
71 | O=C(NC1CCS(=O)(=O)C1)Oc1ccccc1 (stereo not shown) | 12.9
72 | CCOc1ccc(C(C#N)N2CCOCC2)cc1OC (stereo not shown) | 14.3
73 | CN(CC(=O)NCc1cccs1)S(=O)(=O)c1cccc2nsnc12 | 12.4
74 | O=C(CSc1ncnc2c1cnn2-c1ccc(F)cc1)NC1CCCC1 | 11.4
75 | CCCNC(=O)C(Cc1ccc(Br)cc1)NC(=O)c1ccc(C#N)cc1 (stereo not shown) | 5.8
76 | COc1cccc(/C=N/n2cnc3ccccc32)c1OC | 12.8
77 | CC(C)c1ccc(NC(=O)C2CCCCC2C(=O)O)cc1 (stereo not shown) | 5.18
78 | CCCCCCn1c(COc2ccccc2F)nnc1SCC(=O)N1c2ccccc2NC(=O)C1(C)C | 5.95
79 | CCOC(=O)Cc1csc(NC(=O)c2ccc(F)cc2)n1 | 13.9
80 | COc1ccccc1N1CCN(Cc2cc(OC)c3c(c2)OCO3)CC1 | 10.7
81 | CCOC(=O)C(=CNc1ccc(NC2=NCC(C)S2)cc1)C(=O)OCC (stereo not shown) | 5.36
82 | Cc1cc(NC(=O)CSc2nnc3c(C)cc4cc(C)c(C)cc4n23)no1 | 11.6
83 | Cl.O=C(NN1CCN(Cc2ccccc2Cl)CC1)c1ccc(Br)cc1 | 10.2
84 | CN(CCOc1ccc(Cl)cc1)C(=O)C1CCN(C(=O)c2ccc(Cl)cc2)CC1 | -37
85 | CCC1(C)Cc2c(sc(NC(=O)CCC(=O)O)c2C#N)CO1 (stereo not shown) | 9.25
86 | CC1CCN(C(=O)COc2cccc3c2CCN(Cc2ccccc2)C3=O)CC1 | -2.61
87 | COc1cc(CNCc2c[nH]c3ccccc23)cc(OC)c1 | 10.8
88 | CCOC(=O)c1cc(-c2ccc(N3CCOCC3)cc2)nn1-c1ccccc1C(=O)O | 9.57
